Consider 24 molecules from article PMC4336329 (PLoS ONE, 2015).

Molecules are shown by their SMILES. Out of some 310,000 compounds screened, about 14,000 (4.5%) showed an effect of 50% or more. Effects have a minus sign here. This is one part of the list.
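Also: peak tail current of the secondary pulse compared with the same well before compound.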

The target of the test is human ether-à-go-go-related gene (hERG) potassium channel (human, UniProt Q12809). Put plainly: primary screen, population patch clamp on CHO cells stably expressing hERG.
human ether-à-go-go-related gene (hERG) potassium channel, sequence (Q12809 whole entry, looked up): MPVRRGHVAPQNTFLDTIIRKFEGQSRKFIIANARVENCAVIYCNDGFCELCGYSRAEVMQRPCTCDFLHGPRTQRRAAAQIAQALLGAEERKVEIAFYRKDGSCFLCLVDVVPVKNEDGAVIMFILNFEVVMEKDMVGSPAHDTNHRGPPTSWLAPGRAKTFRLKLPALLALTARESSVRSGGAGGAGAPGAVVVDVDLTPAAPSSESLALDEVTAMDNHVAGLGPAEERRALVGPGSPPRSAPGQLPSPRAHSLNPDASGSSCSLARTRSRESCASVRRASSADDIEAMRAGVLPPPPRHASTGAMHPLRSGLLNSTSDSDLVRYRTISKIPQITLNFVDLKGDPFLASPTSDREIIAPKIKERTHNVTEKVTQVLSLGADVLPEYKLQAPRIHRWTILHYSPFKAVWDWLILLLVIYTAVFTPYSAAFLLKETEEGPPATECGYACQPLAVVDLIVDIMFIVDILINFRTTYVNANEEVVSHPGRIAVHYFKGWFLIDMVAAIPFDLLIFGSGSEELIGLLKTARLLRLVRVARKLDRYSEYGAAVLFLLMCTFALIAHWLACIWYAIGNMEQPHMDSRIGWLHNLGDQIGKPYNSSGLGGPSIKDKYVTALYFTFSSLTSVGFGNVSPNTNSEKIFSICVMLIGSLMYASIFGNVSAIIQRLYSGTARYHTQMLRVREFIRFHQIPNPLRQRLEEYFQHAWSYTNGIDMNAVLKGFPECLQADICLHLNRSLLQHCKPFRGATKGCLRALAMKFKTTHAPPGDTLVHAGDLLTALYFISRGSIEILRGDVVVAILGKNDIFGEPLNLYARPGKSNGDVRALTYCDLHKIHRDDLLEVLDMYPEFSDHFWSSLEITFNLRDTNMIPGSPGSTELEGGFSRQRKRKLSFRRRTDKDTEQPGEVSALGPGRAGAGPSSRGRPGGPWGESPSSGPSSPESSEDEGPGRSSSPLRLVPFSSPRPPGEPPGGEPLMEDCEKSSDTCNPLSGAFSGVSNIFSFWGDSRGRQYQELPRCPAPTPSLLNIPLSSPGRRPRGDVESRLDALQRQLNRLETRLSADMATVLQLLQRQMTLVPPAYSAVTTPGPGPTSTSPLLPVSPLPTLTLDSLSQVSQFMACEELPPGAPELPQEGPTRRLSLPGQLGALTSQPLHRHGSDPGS
Take `O=C(COC(=O)c1cccc(O)c1)Nc1nnc(-c2ccccc2)o1`: the “hERG current change (%, negative = inhibition) at 10uM” value worked out at 32.8%.

In the case of `CC(=O)N1CCN(CCN(CC2C(C)C=C(C)CC2C)C(C)=O)CC1` (stereo not drawn), the “hERG current change (%, negative = inhibition) at 10uM” value was -9.36%. The result for `CC(=O)NC1=NN(C(C)=O)C(C)(c2ccccn2)S1` (stereo not drawn) reads 40.7%; that for `CC(C)(C)c1cc(C(=O)N/N=C/c2ccc(-c3ccccc3[N+](=O)[O-])o2)n[nH]1`, -18.5%; that for `COc1ccc(S(=O)(=O)N2CCOC2CNC(=O)C(=O)NCc2ccc(F)cc2)cc1` (stereo not drawn), -0.994%. The same measure for `Cn1cccc1/C=C1\SC(=S)N(NC(=O)c2ccccc2)C1=O`: 7.44%; for `Cc1sc2ncn(CC(=O)NCC(=O)N3CCC4(CC3)OCCO4)c(=O)c2c1C`: -4.54%; for `CC1CCCC(NS(=O)(=O)c2cc3c(cc2Cl)NC(=O)CO3)C1C` (stereo not drawn): -10.5%. The same measure for `O=C(Oc1ccc2c3c(c(=O)oc2c1)CCCC3)c1ccco1`: -3.63%; for `C/C(=N\NC(=O)C1CC1)c1ccc(C(C)(C)C)cc1`: 9.56%. `Cc1ccnc(NS(=O)(=O)c2ccc(NC(=O)c3cc(=O)c4ccccc4o3)cc2)n1`: the “hERG current change (%, negative = inhibition) at 10uM” value was found to be 25.5%. The same measure for `Cc1cc(C)cc(-n2ncc3c2CCCC3NC(=O)C2CCC2)c1` (stereo not drawn): -76%. `COc1cc(/C=C2/CCc3ccccc3C2=O)cc(OC)c1OC`: the “hERG current change (%, negative = inhibition) at 10uM” value was -16.1%.

As to `O=C(NCc1cccnc1)C(=O)NCC(c1ccco1)N1CCN(c2ccc(F)cc2)CC1` (stereo not drawn), the “hERG current change (%, negative = inhibition) at 10uM” value is recorded as -22.6%. As to `Cc1ccc2oc(=O)cc(CN3CCC(C)CC3)c2c1`, the “hERG current change (%, negative = inhibition) at 10uM” value worked out at 10.8%. Take `CC(C)Oc1ccc(C(CC(=O)N2CCOCC2)C(C)C)cc1` (stereo not drawn): the “hERG current change (%, negative = inhibition) at 10uM” value turned out to be 5.26%. Take `C[C@H](NC(=O)c1nc[nH]c1C(=O)N1CC[NH2+]CC1)C(=O)OC(C)(C)C.[Cl-]`: the “hERG current change (%, negative = inhibition) at 10uM” value turned out to be 5.51%. On to `Cc1ccc(NC(=O)CN2CCC(C(=O)c3ccc(F)cc3)CC2)cc1`, for which the “hERG current change (%, negative = inhibition) at 10uM” value was -72.5%. As for `CC1CCN(S(=O)(=O)c2ccc(S(=O)(=O)NCc3cccnc3)cc2)CC1`, the “hERG current change (%, negative = inhibition) at 10uM” value was determined as 20.9%. The result for `C/C(=N\NC(=O)c1ccccc1)c1c(C)[nH]n(-c2ccccc2)c1=O` reads 21.9%. As to `Nc1nc(-c2ccc(Cl)cc2Cl)cn1N`, the “hERG current change (%, negative = inhibition) at 10uM” value is on record as -21.8%.

As for `Cc1nnc(NC(=O)c2ccco2)s1`, the “hERG current change (%, negative = inhibition) at 10uM” value stood at 3.43%. As to `O=C(CCCN1C(=O)/C(=C/c2cccs2)SC1=S)Nc1cccc(O)c1`, the “hERG current change (%, negative = inhibition) at 10uM” value was 19.8%.

Consider `O=C(NCc1ccco1)c1cnn2c(C(F)(F)F)cc(-c3cccs3)nc12`, for which the “hERG current change (%, negative = inhibition) at 10uM” value is recorded as -4.04%.
